In one assay the test system is HSkMC. As to the kind of experiment: cytotoxicity call (relative viability < 0.9). As to conditions: 10 µM.
The next assay relates to HepG2. As to the kind of experiment: cytotoxicity call (relative viability < 0.9). Particulars: 10 µM.
For the next assay, the system named is S. aureus RN4220. Briefly: growth inhibition call (relative growth <= 0.2). Particulars: 50 µM.

Some of the results follow.

Regarding `C[C@@H]1CN([C@@H](C)CO)C(=O)c2ccccc2-c2ccccc2CO[C@@H]1CN(C)C(=O)Nc1cccc(Cl)c1Cl`, the cytotoxicity call with HSkMC and in the assay with HepG2 was “inactive” each time. The growth inhibition call with S. aureus RN4220 was “inactive”.
In the case of `Cc1nn(C)c2c1[C@@H](c1ccc(C(F)(F)F)cc1)C(C#N)C(=N)O2` (stereo partly specified), the cytotoxicity call with HSkMC and in the assay with HepG2 was “inactive” throughout. Besides, the growth inhibition call with S. aureus RN4220 is “inactive”.
For the molecule `C[C@@H]1CN([C@H](C)CO)C(=O)Cc2cc(NS(=O)(=O)c3ccc(F)cc3)ccc2O[C@@H]1CN(C)S(=O)(=O)c1ccccc1`, the cytotoxicity call in the assay with HSkMC and with HepG2 was “inactive” throughout. Moreover, the growth inhibition call in the assay with S. aureus RN4220 was “inactive”.
Regarding `COc1ccc(S(=O)(=O)N(C)C[C@H]2Oc3ccc(NS(=O)(=O)c4cccs4)cc3CC(=O)N([C@H](C)CO)C[C@H]2C)cc1`, the cytotoxicity call in the assay on HSkMC and in the assay with HepG2 was “inactive” throughout. Further, the growth inhibition call with S. aureus RN4220 is “inactive”.
For `C[C@H](CO)N1C[C@H](C)[C@H](CN(C)Cc2ccccc2)OCCCC[C@H](C)Oc2ccc(NC(=O)Nc3cccc4ccccc34)cc2C1=O`, the cytotoxicity call with HSkMC and in the assay with HepG2 was “inactive” in each case. Also, the growth inhibition call in the assay with S. aureus RN4220 is “inactive”.
As for `COc1ccc(-c2csc(CCN)n2)cc1`, the cytotoxicity call with HSkMC and with HepG2 was “inactive” each time. The growth inhibition call with S. aureus RN4220 is “inactive”.
Consider `C[C@@H]1CN([C@H](C)CO)C(=O)Cc2cc(NC(=O)Nc3ccc(F)cc3)ccc2O[C@@H]1CN(C)Cc1ccc(Oc2ccccc2)cc1`, for which the cytotoxicity call in the assay on HSkMC and in the assay on HepG2 was “active” throughout. The growth inhibition call in the assay on S. aureus RN4220 is “inactive”.
With `C[C@H]1CN([C@@H](C)CO)C(=O)c2c(c3ccccc3n2C)-c2ccccc2CO[C@@H]1CN(C)Cc1ccc(O)cc1`, the cytotoxicity call with HSkMC and with HepG2 was “inactive” in each case. In addition, the growth inhibition call in the assay on S. aureus RN4220 is “inactive”.
Regarding `C[C@@H]1CN([C@H](C)CO)C(=O)c2cccc(N(C)C)c2O[C@H]1CN(C)S(C)(=O)=O`, the cytotoxicity call with HSkMC and in the assay on HepG2 was “inactive” throughout. The growth inhibition call with S. aureus RN4220 is “inactive”.
Take `CC(C)(C)[S@](=O)N1Cc2cc(C(=O)N[C@H]3CCN(Cc4ccccc4)C3)nc(-c3cccc(-c4ccncc4)c3)c2[C@@H]1CCO`: the cytotoxicity call in the assay on HSkMC and with HepG2 was “inactive” in each case. The growth inhibition call with S. aureus RN4220 is “inactive”.
Take `COc1ccccc1S(=O)(=O)N(C)C[C@@H]1OCc2cn(nn2)CCCC(=O)N([C@@H](C)CO)C[C@@H]1C`: the cytotoxicity call with HSkMC and with HepG2 was “inactive” in each case. In the assay on S. aureus RN4220, the growth inhibition call is “inactive”.
Consider `Cc1noc(C)c1NC(=O)N(C)C[C@@H]1Oc2ccc(NC(=O)Nc3ccc(C(F)(F)F)cc3)cc2C(=O)N([C@H](C)CO)C[C@H]1C`, for which the cytotoxicity call in the assay on HSkMC and in the assay with HepG2 was “inactive” in each case. The growth inhibition call with S. aureus RN4220 is “inactive”.
`C[C@H](CO)N1C[C@H](C)[C@@H](CN(C)S(C)(=O)=O)Oc2ncc(C#Cc3cccnc3)cc2C1=O`: the cytotoxicity call with HSkMC and with HepG2 was “inactive” in each case. Moreover, in the assay with S. aureus RN4220, the growth inhibition call is “inactive”.
As for `Cc1noc(C)c1NC(=O)N(C)C[C@H]1OCCCC[C@H](C)Oc2ccc(NS(=O)(=O)c3cccs3)cc2C(=O)N([C@@H](C)CO)C[C@@H]1C`, the cytotoxicity call in the assay on HSkMC and in the assay on HepG2 was “inactive” in each case. For the same molecule, the growth inhibition call in the assay with S. aureus RN4220 was “inactive”.
As for `C[C@H]1CN([C@@H](C)CO)S(=O)(=O)c2ccc(-c3cncnc3)cc2O[C@H]1CN(C)C(=O)C1CCCCC1`, the cytotoxicity call in the assay on HSkMC and in the assay with HepG2 was “inactive” each time. In the assay on S. aureus RN4220, the growth inhibition call is “inactive”.
Regarding `CO[C@H]1CN(C)C(=O)c2ccc(NC(=O)Nc3ccc(Cl)cc3)cc2OC[C@@H](C)N(C(=O)Nc2c(C)noc2C)C[C@@H]1C`, the cytotoxicity call in the assay with HSkMC and with HepG2 was “inactive” in each case. Besides, in the assay on S. aureus RN4220, the growth inhibition call was “inactive”.
With `CN(C)CCCNC(=O)C[C@H]1C=C[C@@H](NC(=O)Cc2cccnc2)[C@H](CO)O1`, the cytotoxicity call in the assay with HSkMC and in the assay with HepG2 was “inactive” in each case. Further, the growth inhibition call with S. aureus RN4220 is “inactive”.
For the molecule `COc1cccc(C)c1NC(=O)O[C@H]1[C@H](OC(=O)Nc2ccccc2-c2ccccc2)[C@H](OC(=O)Nc2ccccc2-c2ccccc2)[C@@H](OC)O[C@@H]1CO`, the cytotoxicity call in the assay on HSkMC and with HepG2 was “inactive” throughout. Besides, in the assay on S. aureus RN4220, the growth inhibition call is “inactive”.
With `C[C@@H]1CCCCO[C@H](CN(C)Cc2ccccc2)[C@H](C)CN([C@H](C)CO)C(=O)c2cc(NS(=O)(=O)c3ccc(Cl)cc3)ccc2O1`, the cytotoxicity call in the assay with HSkMC was “inactive”. In the assay with HepG2, the cytotoxicity call is “active”. The growth inhibition call in the assay with S. aureus RN4220 was “inactive”.
On to `COc1ccc(NC(=O)Nc2ccc3c(c2)CC(=O)N([C@@H](C)CO)C[C@@H](C)[C@@H](CN(C)S(=O)(=O)c2c(C)noc2C)O3)cc1`, for which the cytotoxicity call in the assay with HSkMC and in the assay on HepG2 was “inactive” throughout. Further, in the assay with S. aureus RN4220, the growth inhibition call was “inactive”.
As for `C[C@H]1CN([C@@H](C)CO)S(=O)(=O)c2ccc(C#Cc3cccnc3)cc2O[C@H]1CN(C)C(=O)CN(C)C`, the cytotoxicity call in the assay on HSkMC and in the assay with HepG2 was “inactive” in each case. Further, in the assay with S. aureus RN4220, the growth inhibition call is “inactive”.
For the molecule `COc1cccc(S(=O)(=O)N(C)C[C@@H]2Oc3ncc(C#Cc4ccccc4)cc3C(=O)N([C@H](C)CO)C[C@@H]2C)c1`, the cytotoxicity call with HSkMC and with HepG2 was “inactive” throughout. In addition, the growth inhibition call in the assay on S. aureus RN4220 was “inactive”.
In the case of `Cc1cc(C(=O)Nc2cccc3c2O[C@@H](CN(C)C(=O)NC(C)C)[C@H](C)CN([C@H](C)CO)C3=O)n(C)n1`, the cytotoxicity call in the assay with HSkMC and in the assay on HepG2 was “inactive” throughout. Besides, in the assay with S. aureus RN4220, the growth inhibition call was “inactive”.
`CCCNC(=O)N(C)C[C@H]1Oc2cc(-c3ccccc3F)ccc2S(=O)(=O)N([C@@H](C)CO)C[C@@H]1C`: the cytotoxicity call in the assay with HSkMC and in the assay on HepG2 was “inactive” each time. Also, in the assay with S. aureus RN4220, the growth inhibition call was “inactive”.
For the molecule `COc1ccc(NC(=O)N(C)C[C@@H]2OCCCC[C@H](C)Oc3ccc(NC(=O)Nc4ccc(C(F)(F)F)cc4)cc3C(=O)N([C@H](C)CO)C[C@@H]2C)cc1`, the cytotoxicity call in the assay with HSkMC and in the assay with HepG2 was “inactive” each time. Besides, the growth inhibition call in the assay on S. aureus RN4220 is “inactive”.
Consider `C[C@@H]1CN([C@H](C)CO)C(=O)c2cccc(NC(=O)Nc3ccccc3)c2O[C@@H]1CN(C)S(=O)(=O)c1cn(C)cn1`, for which the cytotoxicity call in the assay with HSkMC and with HepG2 was “inactive” in each case. For the same molecule, the growth inhibition call in the assay on S. aureus RN4220 is “inactive”.
For the molecule `COCC#Cc1ccc([C@H]2[C@H]3CN(C(=O)c4ccncc4)CC(=O)N3[C@H]2CO)cc1`, the cytotoxicity call in the assay on HSkMC (human skeletal muscle cells) and with HepG2 was “inactive” in each case. Further, the growth inhibition call in the assay with S. aureus RN4220 was “inactive”.

(Values after the antibiotic and cytotoxicity screens of Wong et al. (2023).)
